Laboratory results: PubChem BioAssay AID504339 (National Center for Advancing Translational Sciences (NCATS), 2011)
Screen size: about 390,000 compounds; about 17,000 (4.4%) were called active. The shares of active, inactive and inconclusive entries below differ from those in the screen. Calls follow the shape of the dose curve; as a rule, active = well fitted inhibition curve with a large enough effect; inconclusive = small, poorly fitted or top-dose-only effect; inactive = no such curve, though single readings can be large or run the other way. Potencies beside an inconclusive call are fits to weak or partial responses and may not hold up.

target: Lysine-specific demethylase 4A (Homo sapiens) (UniProt O75164); assay: qHTS Assay for Inhibitors of JMJD2A-Tudor Domain; conditions: AlphaScreen JMJD2A-Tudor / H3K4me3 peptide binding; activity change, negative = inhibition: at 114 µM (top of the series); also: nearly all actives have a fitted effect of over 50% in size
Sequence of UniProt O75164 (O75164 whole entry, looked up, the tested form may be a part): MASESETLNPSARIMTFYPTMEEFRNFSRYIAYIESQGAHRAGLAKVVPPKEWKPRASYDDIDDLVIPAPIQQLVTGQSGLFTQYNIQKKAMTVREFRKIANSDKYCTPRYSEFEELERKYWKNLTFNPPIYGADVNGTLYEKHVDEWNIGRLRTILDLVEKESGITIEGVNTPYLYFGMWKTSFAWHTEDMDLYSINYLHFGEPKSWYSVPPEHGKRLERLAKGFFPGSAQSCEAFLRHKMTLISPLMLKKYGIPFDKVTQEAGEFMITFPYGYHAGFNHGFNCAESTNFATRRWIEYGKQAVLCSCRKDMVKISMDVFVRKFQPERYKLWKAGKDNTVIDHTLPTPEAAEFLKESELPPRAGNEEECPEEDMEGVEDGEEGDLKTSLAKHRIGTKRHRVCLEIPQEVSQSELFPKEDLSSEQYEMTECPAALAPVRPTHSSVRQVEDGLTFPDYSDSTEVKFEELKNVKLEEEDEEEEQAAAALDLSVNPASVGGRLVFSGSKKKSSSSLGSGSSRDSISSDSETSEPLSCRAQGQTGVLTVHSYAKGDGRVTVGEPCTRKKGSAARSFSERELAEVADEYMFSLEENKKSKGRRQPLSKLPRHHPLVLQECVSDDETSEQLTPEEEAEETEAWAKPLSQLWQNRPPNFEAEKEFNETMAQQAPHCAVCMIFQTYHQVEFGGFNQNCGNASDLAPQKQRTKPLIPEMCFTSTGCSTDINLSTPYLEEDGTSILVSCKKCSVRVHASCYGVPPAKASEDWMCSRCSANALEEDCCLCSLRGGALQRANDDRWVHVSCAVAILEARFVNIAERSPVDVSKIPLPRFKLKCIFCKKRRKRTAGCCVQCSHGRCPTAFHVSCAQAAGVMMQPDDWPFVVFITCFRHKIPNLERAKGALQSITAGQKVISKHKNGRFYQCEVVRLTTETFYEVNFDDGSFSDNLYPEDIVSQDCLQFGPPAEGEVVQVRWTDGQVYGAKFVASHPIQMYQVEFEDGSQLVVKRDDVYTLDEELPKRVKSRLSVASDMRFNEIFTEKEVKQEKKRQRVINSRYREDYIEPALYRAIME
% is scaled to controls: 0 for no effect and ±100 for the full control effect; potency is read from the fitted curve at half-maximal effect; tags tell the direction and shape of the fitted curve.

| SMILES | Potency | activity change, negative = inhibition |
| --- | --- | --- |
| Cc1cc(-c2ccc(C)c(S(=O)(=O)Nc3ccc(C)c(N(C)C)c3)c2)on1 | inconclusive: 56.2 µM [inhibitor, partial curve] | – |
| CN1C(=O)/C(=C\c2cc(Br)cs2)c2ccccc21 | inconclusive: 14.1 µM [inhibitor, full curve, poor fit] | – |
| CCOC(=O)C1=C(C)N(C[C@@H]2CC[C@@H](Cc3ccc4cc(OC)ccc4c3)O2)C(=O)NC1c1ccccc1 (some centres not stated) | inconclusive: 79.4 µM [inhibitor, partial curve] | – |
| COc1ccc(-c2nnn(CC(=O)N(Cc3ccco3)C(C(=O)NCC3CCCO3)c3ccco3)n2)cc1 (configuration not stated) | inconclusive: 70.8 µM [inhibitor, single point] | – |
| CCCn1cnc2c1c(=O)n(CCCCC(C)=O)c(=O)n2C | – | inactive: -12.7% |
| Cc1ccc(Cn2c(C)c3cnn(CC(=O)N4CCN(c5ccc(F)cc5)CC4)c(=O)c3c2C)cc1 | inconclusive: 39.8 µM [inhibitor, full curve, poor fit] | – |
| CCn1c(SCC(=O)c2ccccc2)nnc1-c1cnccn1 | – | inactive: -10.4% |
| COc1ccc(Cl)cc1NS(=O)(=O)c1c(C)[nH]c(=O)[nH]c1=O | inconclusive: 39.8 µM [inhibitor, partial curve] | – |
| COc1ccc(OC)c(C2CC(=O)c3c([nH]c(C(=O)OCC4CCCO4)c3C)C2)c1 (configuration not stated) | – | inactive: -35% |
| COc1cc(NC(=O)c2ccccc2[N+](=O)[O-])ccc1NC(=O)c1cc2ccccc2o1 | inconclusive: 17.8 µM [inhibitor, full curve, poor fit] | – |
| O=C(NCC(c1ccc2c(c1)OCO2)N1CCN(c2ccccc2)CC1)c1ccccc1 (configuration not stated) | inconclusive: 50.1 µM [inhibitor, partial curve] | – |
| COC(=O)c1[nH]c2ccc(Cl)cc2c1NC(=O)CN1CCc2cc(OC)c(OC)cc2C1 | inconclusive: 79.4 µM [inhibitor, partial curve] | – |
| O=C(CNC(=O)c1ccco1)Nc1ccc(N2CCCCCC2)cc1 | inconclusive: 10 µM [inhibitor, full curve] | – |
| COc1ccc(N2CCN(C(=O)CCc3nc(-c4ccc(C)cc4)no3)CC2)cc1 | inconclusive: 22.4 µM [inhibitor, full curve, poor fit] | – |
| CCOC(=O)C1Oc2ccccc2C(c2ccc(OC)cc2)=C1C(=O)OC (configuration not stated) | inconclusive: 89.1 µM [inhibitor, single point] | – |
| CC1CCN(C2CCN(S(=O)(=O)c3ccc(F)cc3)CC2)CC1 | inconclusive: 1.58 µM [inhibitor, full curve, poor fit] | – |
| CCOc1ccc(NC(=O)CNc2cccc(S(=O)(=O)N3CCCCCC3)c2)cc1OCC | inconclusive: 50.1 µM [inhibitor, partial curve] | – |
| COc1ccc(-n2c(Cc3cccn3C)nnc2SCC(=O)Nc2ccc(C)c(Cl)c2)cc1 | inconclusive: 44.7 µM [inhibitor, partial curve] | – |
| C/C(=N\NC(=O)C(=O)Nc1cccc(C(F)(F)F)c1)c1ccc(Cl)s1 | – | inactive: -11.5% |
| Cc1ccc(S(=O)(=O)N2CCn3cccc3C2C)cc1 (configuration not stated) | inconclusive: 35.5 µM [inhibitor, partial curve] | – |
| CCCCN1C(=O)CCC(C(=O)O)C1c1ccc(OC)cc1 (configuration not stated) | active: 89.1 µM | – |

| SMILES | Potency | activity change, negative = inhibition |
| --- | --- | --- |
| O=C(c1ccc(Cl)c(Cl)c1)N1CCC(=O)N(C(COCc2cccc(C(F)(F)F)c2)Cc2ccccc2)CC1 (configuration not stated) | – | inactive: -14.3% |
| O=C(CSc1nnc(CNC(=O)c2cccs2)o1)Nc1ccc(Br)cc1 | – | inactive: -11.3% |
| Cc1ccccc1Nc1nnc(-c2ccc(C)c(S(=O)(=O)N3CCCCC3)c2)c2ccccc12 | – | inactive: -30.1% |
| C=CCn1c(-c2oc3nc(-c4ccccc4)cc(-c4ccccc4)c3c2N)n[nH]c1=S | inconclusive: 70.8 µM [inhibitor, single point] | – |
| CCOC(=O)c1ccc(/C=C2/C=C(c3ccccc3)N(c3ccc(Cl)c(C(=O)O)c3)C2=O)cc1 | inconclusive: 44.7 µM [inhibitor, partial curve] | – |
| Cc1ccc(N=c2sc(C)c(C)n2C)cc1 | inconclusive: 35.5 µM [inhibitor, single point] | – |
| Cc1ccc(-c2nc(C(=O)NC3CCCCCC3)no2)cc1 | active: 15.8 µM | – |
| O=C(NCC(c1cccnc1)N1CCc2ccccc21)C(=O)Nc1ccccc1F (configuration not stated) | inconclusive: 31.6 µM [inhibitor, partial curve] | – |
| O=S(=O)(Nc1ccc(N2CCCCC2)cc1)c1ccc(F)cc1 | inconclusive: 50.1 µM [inhibitor, partial curve] | – |
| O=C(N/N=C/c1ccc2ncccc2c1)c1cccc([N+](=O)[O-])c1 | inconclusive: 70.8 µM [inhibitor, partial curve, poor fit] | – |
| COc1ccc(NC(=S)Nn2cnnc2)c(OC)c1 | inconclusive: 56.2 µM [inhibitor, partial curve] | – |
| N#CC(=C1SC=CS1)c1nc(-c2ccccc2)cs1 | inconclusive: 20 µM [inhibitor, partial curve] | – |
| CC(C)(C)c1cc(/C=N/NC(=O)C[n+]2ccccc2)cc(C(C)(C)C)c1O | active: 56.2 µM | – |
| Cc1cc(Br)ccc1OCCCCN1CCCCC1 | active: 1.58 µM | – |
| CC(=O)Nc1cc(ON=C(C)C)cc([N+](=O)[O-])c1 | – | inactive: -6.25% |
| Cc1cc(-n2c(C)cc(C(=S)N3CCOCC3)c2C)ccc1Br | inconclusive: 0.708 µM [inhibitor, full curve, poor fit] | – |
| O=C(CCCOc1ccc(Cl)cc1Cl)N/N=C/c1cccc([N+](=O)[O-])c1 | inconclusive: 25.1 µM [inhibitor, single point] | – |
| CC(Oc1ccccc1)C(=O)N1CCC2(CC1)Oc1ccc(F)cc1C(=O)C21CC(c2ccccc2)=NO1 (configuration not stated) | inconclusive: 15.8 µM [inhibitor, full curve] | – |
| Cn1nnnc1SCC(=O)N1c2ccccc2CCc2ccccc21 | inconclusive: 89.1 µM [inhibitor, partial curve, poor fit] | – |
| COc1ccc(S(=O)(=O)NCC(c2ccco2)N2CCN(c3ccccc3F)CC2)cc1C (configuration not stated) | – | inactive: -9.42% |
| CCOc1cc(C(F)(F)F)cnc1/C(N)=N/O | inconclusive: 20 µM [inhibitor, full curve] | – |
